Data reported in PubChem BioAssay AID743262 (National Center for Advancing Translational Sciences (NCATS), 2014).
In all, about 1,300 compounds went through this assay and about 25 (2%) were called active. Roughly 9% stayed inconclusive and do not appear here. Calls follow the shape of the dose curve; as a rule, active = well fitted activation curve with a large enough effect; inconclusive = small, poorly fitted or top-dose-only effect; inactive = flat fitted curve, though single readings scatter. The list shows a part of the results.

target: Glucagon-like peptide 1 receptor (Homo sapiens) (UniProt P43220); test: qHTS of GLP-1 Receptor Agonists: Hit Validation; conditions: HEK293 GLP-1R, cAMP-response luciferase, 4-6 h; series mostly up to 46.1 µM; activation: at the top concentration; as to activation: % of control where 0% means no effect
Source text: The overall goal of this project was to develop a novel assay for discovering small molecule ligands for class B1 G protein-coupled receptors (GPCRs). Very few agonists (or inverse agonists) with generally weak activity for this entire group of physiologically important receptors are known to date. To establish proof-of-principle that this critical bottleneck can be overcome with a suitable screening approach, our studies focused on the class B1 receptor for glucagon-like peptide-1 (GLP-1R), a potential therapeutic target for diabetes and neurodegenerative disease. The assay was developed in a "mix and measure" format using a cell-based functional readout. Toward this goal, stably transfected HEK293 cell clones were established that co-express (i) a cAMP-responsive luciferase reporter gene, and (ii) GLP-1Rs that upon ligand interaction either stimulate (agonists) or inhibit (inverse agonists) luciferase activity. In different cell lines to be used for screening, expressed GLP-1Rs are specifically optimized for high sensitivity detection of either weak agonists (hypersensitive receptor) or inverse agonists (constitutively active receptor mutant). In addition, control cell lines were developed that express either the cAMP-responsive reporter gene without recombinant GLP-1Rs (enabling initial exclusion of GLP-1R independent effects of candidate probes), or the reporter gene together with wild type GLP-1Rs (for confirmation of probe activity at this receptor), or the reporter gene in combination with the constitutively active orphan receptor GPR119 (enabling initial exclusion of GLP-1R independent inhibitory effects of candidate inverse agonists). To that end, this assay was optimized for 1536-well format and screened against the MLSMR. NIH Molecular Libraries Probe Production Network [MLPCN] NIH Chemical Genomics Center [NCGC] Grant: NS064851 PI Name: Martin Beinborn, Tufts Medical Center
In a white solid 1536-well plate, 6 uL of cells are dispensed in DMEM without phenol red, 10% Nu serum, and 1% pen-strep medium. The plates are then incubated for 12 hours at 37 deg C at 5% CO2 before 23 nL of compounds are added. After a 4-6 hr incubation at37 deg C and 5% CO2, 3 uL of detection reagent are added and after a 12 min incubation at RT, a luminescent read is obtained on the ViewLux.
Potency is read from the fitted curve at half-maximal effect.

Sequence of UniProt P43220 (P43220 whole entry, looked up): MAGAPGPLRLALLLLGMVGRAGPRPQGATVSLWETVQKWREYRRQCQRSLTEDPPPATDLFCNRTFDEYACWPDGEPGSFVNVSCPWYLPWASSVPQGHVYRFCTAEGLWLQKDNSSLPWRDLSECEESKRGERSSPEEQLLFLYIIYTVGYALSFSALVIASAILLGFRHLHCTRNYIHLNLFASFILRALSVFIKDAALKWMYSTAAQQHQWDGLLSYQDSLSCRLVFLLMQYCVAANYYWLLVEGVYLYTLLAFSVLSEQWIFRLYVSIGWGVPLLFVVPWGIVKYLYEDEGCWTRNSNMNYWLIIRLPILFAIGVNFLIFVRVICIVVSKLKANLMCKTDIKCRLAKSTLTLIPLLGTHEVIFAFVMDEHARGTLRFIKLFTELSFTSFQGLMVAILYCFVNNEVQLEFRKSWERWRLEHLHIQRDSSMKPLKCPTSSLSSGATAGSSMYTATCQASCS

SMILES	activation	Potency
CSc1nc(N)nc(SCC(=O)OC(C)C)c1C#N	inactive: 5.44%	
CNS(=O)(=O)c1ccc(OC)c(-c2nnc3c4ccccc4c(C)nn23)c1	inactive: 20.7%	
CS(=O)(=O)c1ccc(Nc2nc(C(N)c3ccccc3)cs2)cc1 (configuration not stated)	inactive: 0.347%	
COc1ccc(N/C=C\C(=O)c2ccc3c(c2)OCO3)cc1OC	inactive: 9.71%	
CC(=O)c1cc(C#N)c(SCC(=O)OC(C)(C)C)nc1C	inactive: 4.82%	
Brc1ccc(-c2nnc(Cc3ccccc3)o2)cc1	inactive: 2.36%	
CCOC(=O)c1ccc2nc(C)c3c(c2c1)OC(C)C3 (configuration not stated)	inactive: 4.77%	
Cc1sc2ncnc(N(C)Cc3cccs3)c2c1C	inactive: 6.84%	
O=C(Nn1cnnc1)c1cccc(S(=O)(=O)N2CCOCC2)c1	inactive: -0.469%	
CCOc1cc(-c2nccc3cc(OC)c(OC)cc23)cc(OCC)c1OCC	inactive: 14.6%	
C=C(C)COc1ccc(-c2nc(N)ncc2-c2ccc(OC)c(OC)c2)c(O)c1	inactive: 21.9%	
CCOc1ccc(CCNC(=O)c2ccc3ccccc3n2)cc1OCC	inactive: 2.41%	
ClCCn1cnc2c(SCc3ccccc3Cl)ncnc21	inactive: 11.4%	
Cc1ccc(CNc2oc(-c3cccs3)nc2C#N)cc1	inactive: 7.42%	
COc1ccc2c(c1)c(C(=O)N/N=C/c1ccc(OC)c(OC)c1)c(C)n2C	inactive: 5.77%	
Clc1cccc(Nc2nc(-c3cccnc3)cs2)c1	inactive: 4.84%	
CCOC(=O)C1=C(COC(=O)c2cc(S(=O)(=O)N3CCOCC3)ccc2F)NC(=O)NC1C (configuration not stated)	inactive: 20.7%	
O=C1CCCc2oc3c(cc(NS(=O)(=O)c4ccc5c6c(cccc46)C(=O)N5)c4ccccc43)c21	inactive: 16.2%	
COc1cccc(C(=O)c2c(-c3ccccc3)ncc3cc(OC)c(OC)cc23)c1	inactive: 24.1%	
NC(=O)c1nsc(C(=O)N(CC(=O)NC2CCCCC2)Cc2ccc(F)cc2)c1N	inactive: -0.188%	
Cc1cc(Cl)ccc1C(=O)C1CCCN(C(=O)CN2CCOC2=O)C1 (configuration not stated)	inactive: 0.21%	
CCCOc1ccc2c(=O)c(-c3cc(C(=O)OC)oc3C)c(C)oc2c1	inactive: 0.445%	

SMILES	activation	Potency
COc1ccc(NC(C)=O)cc1S(=O)(=O)NC(Cc1ccccc1)C(=O)NC(C)c1ccccn1 (configuration not stated)	inactive: -0.833%	
CSc1nc2[nH]c3c(c2c2nnnn12)CCCC3	inactive: 5.08%	
CCOC(=O)C1=C(N)Oc2cc(C)n(CCc3ccc(OC)c(OC)c3)c(=O)c2C1c1cccnc1 (configuration not stated)	inactive: 9.06%	
COCCn1c(C)cc(C(=O)CSc2nc3ccccc3c(=O)n2C(C)COC)c1C (configuration not stated)	inactive: 4.39%	
Cc1cc(C)cc(C(=O)NCC(=O)OCC(=O)NC2CCCc3ccccc32)c1 (configuration not stated)	inactive: -0.538%	
Cc1nc(COc2ccccc2Cl)sc1-c1ccnc(N)n1	inactive: 19.3%	
CC(=O)Nc1cc(-c2ccccc2Cl)cn2c(-c3ccc(S(C)(=O)=O)cc3)cnc12	inactive: 26.3%	
COc1ccc(C(=O)Nc2ccccc2C(=O)N/N=C/c2ccccn2)cc1OC	inactive: 2.4%	
CCn1nc(C(=O)OCc2c(C)noc2C)c2ccccc2c1=O	inactive: 5.6%	
CCOc1ccc(CCNS(=O)(=O)c2cnc[nH]2)cc1OCC	inactive: -0.341%	
CC(C)Oc1ccccc1C1CC(=O)Nc2cc3c(cc21)OCCO3 (configuration not stated)	inactive: 15.9%	
CCN(Cc1ccc(OC)c(F)c1)C(=O)c1cc2ccccc2o1	inactive: 14.9%	
O=C(CCC(=O)c1ccccc1)NCc1cccc(C(F)(F)F)c1	inactive: -0.927%	
C=CCN1N=C(c2ccc(Cl)s2)CSC1=O	inactive: 4.36%	
CCc1cc2c(NCC3CCCO3)nc(C)nc2s1 (configuration not stated)	inactive: -0.988%	
COc1ccc(/C=C2\Sc3ccc(C(=O)NCc4cccnc4)cc3N(C)C2=O)cc1OC	inactive: 26.3%	
COc1cc(SC)ccc1C(=O)NC1CCCCC1	inactive: 0.215%	
Cc1cccc(C)c1NC(=O)CC(NCc1ccco1)C(=O)O (configuration not stated)	inactive: -1.01%	
CC1(C)Cc2c(c(N3CCCC3)nc3sc4c(N5CCN(CCO)CC5)ncnc4c23)CO1	inactive: 17.7%	
CCN(CC(=O)Nc1ccc(NC(C)=O)cc1)C(=O)C1CC1	inactive: -0.0804%	
CCn1nc(C(=O)N[C@@H](CCSC)c2nc3ccccc3[nH]2)c2ccccc2c1=O	inactive: 5.64%	
CCC1CCCCN1S(=O)(=O)c1ccccc1 (configuration not stated)	inactive: -0.773%	

SMILES	activation	Potency
O=C(N/N=C/c1cn(Cc2ccccc2)c2ccccc12)c1cc(O)cc(O)c1	inactive: 23.1%	
CCn1c(SCc2nc3ccccc3s2)nnc1-c1ccccc1	inactive: 2.02%	
N/C(Cc1cccs1)=N\OC(=O)COc1ccc(Br)cc1Cl	inactive: -0.482%	
C[C@H]1CC[C@H]2C(=O)N[C@H](Cc3ccccc3)C(=O)N2[C@@H]1c1ccccc1	inactive: -1.89%	
CC(C)(C)c1nc(NCCO)c2nnn(Cc3ccccc3)c2n1	inactive: 3.59%	
Cc1cc(=O)oc2c3c(cc(OCC(=O)NCc4ccncc4)c12)OC(C)(C)CC3	inactive: 4.46%	
O=C(COC(=O)c1cc([N+](=O)[O-])ccc1NCCO)Nc1cccnc1Cl	inactive: 2.91%	
COc1ccc(-c2cnc3c(NC(C)=O)cc(-c4ccc(C(=O)NC5CC5)cc4)cn23)cc1OC	inactive: 24.6%	
CCOC(=O)C1C(=O)OC(C)(C)C1C(C)C(=O)c1ccc(C)cc1C (configuration not stated)	inactive: 0.36%	
CCOC(=O)c1sc(NC(=O)C2=COCCO2)c(C#N)c1C	inactive: 1.43%	
COc1cc(C#Cc2ccc3cc(CCO)oc(=O)c3c2)cc(OC)c1	inactive: 29.7%	
COc1cccc(/C=N/n2cnc3cc(C)c(C)cc32)c1OC	inactive: 10%	
CCOc1ccc(C(C)NC(=O)c2ccccc2OCc2c(C)noc2C)cc1OCC (configuration not stated)	inactive: -0.281%	
COc1ccc(-c2nc(C(N)=O)c3[nH]c(=O)n(-c4cccc(C)c4)c3n2)c(OC)c1	inactive: 17.2%	
COCCN1C=C(C(=O)OC)C(c2cc(Br)c(OC)c(OC)c2)C(C(=O)OC)=C1	inactive: -0.42%	
COc1ccc(-c2csc(C3=C(O)CN(C(C)C)C3=N)n2)cc1OC	inactive: 24.3%	
CCOc1ncccc1C(=O)OCCN1C(=O)c2ccccc2C1=O	inactive: 0.839%	
CCn1c(=O)[nH]c(=O)c2c(N)c(C(=O)c3ccccc3OC)sc21	inactive: 19.8%	
COc1ccc(-c2cnc3c(NC=O)cc(-c4ccc(C(=O)N5CCOCC5)cc4)cn23)cc1OC	inactive: 22.4%	
CCOc1ccc2ccccc2c1/C=N/NC(=O)c1cc(C)[nH]n1	inactive: 0.23%	
CC1CCc2sc3ncnc(N4CCN(CCO)CC4)c3c2C1 (configuration not stated)	inactive: 4.17%	
N#CCSc1nc(N)c(C#N)c(C2CCCCC2)c1C#N	inactive: 27.1%	

SMILES	activation	Potency
COc1ccc(-c2nc(N)ncc2-c2ccc(OC)c(OC)c2)c(O)c1	inactive: 13.8%	
Cc1ccnc(SCc2cc(=O)c(OC(=O)c3cccs3)co2)n1	inactive: -1.16%	
CCOC(=O)n1c(=O)n(Cc2ccccc2Cl)c2ccccc21	inactive: 3.3%	
COC(=O)c1cc(OC)c(OC)cc1NC(=O)Cc1ccccc1[N+](=O)[O-]	inactive: 2.64%	
COc1ccc(-c2nnc(CSc3nc4ccccc4c(=O)n3CC(C)C)o2)cc1OC	inactive: 25.3%	
COc1cc(-c2cc(-c3ccc(O)cc3)nc(N)c2C#N)ccc1O	inactive: 10.9%	
c1ccc(C2COC(c3cccs3)=N2)cc1 (configuration not stated)	inactive: 2.36%	
COc1ccc(-c2cc(C(=O)N(C)Cc3cccc(OC)c3OC)c3ccccc3n2)cc1OC	inactive: 21.9%	
CCOC(=O)c1c(C)[nH]c(C(=O)N/N=C/c2ccc(Br)cc2)c1C	inactive: 15.3%	
CN(c1ccccc1)c1nc(N)c([N+](=O)[O-])c(Nc2ccccc2F)n1	inactive: 25.7%	
CCS(=O)(=O)NCCc1cc2ccc(C)cc2[nH]c1=O	inactive: -0.645%	
CCOC(=O)c1c(C)n(C)c2cc(Br)c(C(=O)OC)cc12	inactive: 19.6%	
C=CCn1c(SCc2cc(C(C)=O)ccc2OCC)nc2ccccc2c1=O	inactive: 16.2%	
O=[N+]([O-])c1ccccc1OCCCOc1cccc2cccnc12	inactive: 14.7%	
CC(C)OC(=O)CSc1nc(N)c(C#N)cc1C#N	inactive: 6.86%	
Cc1cc(C)c(NS(=O)(=O)c2ccc(NC(=O)CCC(=O)O)cc2)c(C)c1	inactive: -0.308%	
CC(OC(=O)c1ccc2ncsc2c1)C(=O)NC1CCCCC1C (configuration not stated)	inactive: 2.27%	
COc1ccc(C2CC(c3ccc4ccccc4c3OC(C)=O)=NN2C(C)=O)cc1 (configuration not stated)	inactive: 7.64%	
Cc1cc(N(C)C)ccc1N=Nc1ccc(N)cc1	inactive: 5.08%	
CCOc1ccc(C(=O)OCC(=O)Nc2cccnc2Cl)cc1OCC	inactive: 2.67%	
COc1cc2c(cc1[N+](=O)[O-])n(C(C)C)c(=O)n2C(C)C	inactive: 12.1%	
COc1ccc(-n2cnc3cc(NS(=O)(=O)c4ccccc4)ccc32)cc1	inactive: 13.6%	

SMILES	activation	Potency
N#CCSc1nc2ccccc2c(=O)n1CC1CCCC1	inactive: 4.81%	
Cc1ccc(C)c(C(=O)c2ccccc2NC(=O)c2ccccn2)c1	inactive: 6.44%	
COc1cc2ccnc(Cc3cccc(OC)c3OC)c2cc1OC	inactive: 21.2%	
COc1ccc(C(=O)NC2CC(C)(C)Cc3c2cnn3-c2ccccc2C)c(OC)c1OC (configuration not stated)	inactive: 1.2%	
COc1ccc(C(=O)c2cc([N+](=O)[O-])ccc2N2CCOCC2)cc1	inactive: 9.91%	
c1ccc(-c2nn3nnnc3c3ccccc23)cc1	inactive: 3.31%	
C=CCOc1ccc(Cl)cc1-c1noc(-c2csc([C@H]3C[C@H](O)[C@@H](CO)O3)n2)n1	inactive: 8.57%	
C/C(=N\NC(=O)CC(C)C)c1ccc(Cl)c(Cl)c1	inactive: 6.12%	
COC(=O)C1=CN(Cc2ccc(OC)cc2)C=C(C(=O)OC)C1c1cc(OC)c(OC)c(OC)c1	inactive: 0.276%	
CN=C1S/C(=C\c2ccc(O)c(OC)c2)C(=O)N1C	inactive: 11%	
COc1ccc(-c2cnc3c(NC(C)=O)cc(-c4cccc(C(=O)NCCN(C)C)c4)cn23)cc1OC	inactive: 18.3%	
Cc1ccc(S(=O)(=O)N/N=C/c2ccc(O)cc2O)cc1[N+](=O)[O-]	inactive: -0.854%	
COc1ccccc1C(=O)OCc1nc(N)nc(Nc2ccccc2C)n1	inactive: 7.28%	
CC1Cc2cc(S(=O)(=O)N3CCCC(C(=O)N4CCCCC4)C3)ccc2N1C(=O)C1CC1 (configuration not stated)	inactive: 10.9%	
COC(=O)C(C)Sc1nc2c(c(=O)[nH]c(=O)n2C)n1CCCc1ccccc1 (configuration not stated)	inactive: 13.2%	
COc1ccc(-c2cc(NC=O)c3ncc(-c4ccc(OC)c(OC)c4)n3c2)cc1		active: 18.4 µM
CSc1ncccc1C(=O)OCc1ccccc1Cl	inactive: 3.59%	
CCN(CC)CC(=O)Nc1scc2c1c(=O)oc1ccccc12		active: 8.2 µM
COc1ccc(/C(N)=N/OC(=O)c2c(-c3ccccc3Cl)noc2C)cc1OC	inactive: 14.6%	
